From PubChem BioAssay AID1794741 (DTP/NCI, 2022)
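Cells were grown in 96-well plates and exposed to the test compound at a single concentration for 48 hours; results are reported as percent growth, with values below 10 considered active.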 The source holds more than one record for some entries. The other results are left out here. The source may hold further records. This drug was run again and again over the years, at its own concentration, as given; each value is one run. Marks such as (2×) count equal records among those shown.

System: DLD-1 colon
Assay: NCI-60 one-dose screen, 48 h (100 = growth as untreated, 0 = no growth, -100 = all killed)
Settings: 2.5 mM
Description: Growth inhibition of the DLD-1 human tumor cell line is measured as a screen for anti-cancer activity. Cells are grown in 96 well plates and exposed to the test compound for 48 hours. Compounds are tested at a single concentration, which is 10^-5 M for most compounds. The reported endpoint is percent growth (GI% or GIPRCNT), where numbers from 0 - 100% represent growth inhibition, and numbers from -100% - 0 represent cell death. For example, a value of 40 represents 60% growth inhibition. A value of 0 means no net growth occurred over the course of the experiment. A value of -40 indicates 40% of cells at the beginning of the experiment died by the end of the experiment. A value of -100 means all cells are dead at the end of the experiment.
NCI-60 Human Tumor Cell Lines Screen was performed using the standard one-dose NCI protocol, which is described in more detail at https://dtp.cancer.gov/discovery_development/nci-60/default.htm.
Compounds with GIPRCNT values below 10 were considered active. Activity score was based on GIPRCNT using the following formula: […]
Score is 0 for GIPRCNT values of 100 or above, 50 for GIPRCNT values of 0, and 100 for GIPRCNT values of -100.

In the case of O=c1[nH]cc(F)c(=O)[nH]1, the growth (runs of 1991) is reported as 52.1, 0.309, 12.6, 16.3, -25.8, 12.3, 5.56, 6.33, 13, 13.3, 5.46, 12.2, 15.8% and the growth (runs of 1992) is reported as -43.3, -51.3, 3.46, 13.4 (2×), 11.7, 15.1, 7.29, 9.66, 21.9 (3×), 12, 18.5, 15.5, 16.4, 16.2, 24.1, 14.9, 17.9, 8.29, 14.6 (2×), 22.6 (2×), 12.4, 12.6, 96.5, 10.3 (2×), 29.7, 15.2 (2×), 15.9 (2×), 8.7, 10.6, 13 (3×), -7.8, 9.3, 13.9, 15.7, 9.47, 7.13, 11.5, 10.7 (2×), 14.5, 11.8, 14.1, 19, 17, 8.24, 0.952, -59.2, -59.4, -21.6, 9.48, 20.2, 17.1, 20.7, -2.46, 18.4, 23.8, 10.8, 3.34, 9.09, 9.77, 28.3, 8.46, 6.14, 8.43, 21.3, 12.5, 12.2, 3.61, 7.15, 24.4, 17.6, 5.93, 14.7, 14.3, 9.97, 41, 17.5%.
